We go through four compounds from paper PMC8421223 (2021).

Assay [1] concerns RNA-A (RNA, mismatch bulge abasic) GCAGCUCGUCCUG/CAGGAUAGCUGC
As to the kind of experiment: ITC, RNA titrated into ligand. Conditions: 100 mM NaCl, 10 mM Na2HPO4; pH 7, 1 mM EDTA, 0.1% DMSO, 25 °C.

For assay [2] the test system is unchanged. Nature of the assay: UV melting, 260 nm. Conditions: 100 mM NaCl, 10 mM Na2HPO4; pH 7, 1 mM EDTA, 0.1% DMSO; 2 μM RNA, 10 μM ligand.
Assay [3] deals with RNA-D (RNA, mismatch bulge abasic) GCAGCUCGUCCUG/CAGGAUCAGCUGC
As to the kind of experiment: fluorescence titration of berberine (ex 365 nm, em 550 nm). Particulars: 100 mM KCl, 0.5 mM MgCl2; 50 mM MES-LiOH pH 7, 0.1% DMSO, 0.01% Tween-20, 25 °C; n.d., RNA up to 4 μM.

In assay [4] the test system is RNA-H (RNA, mismatch bulge abasic, inosine at 8 of strand 1) GCAGCUCGUCCUG/CAGGAUAGCUGC
Described as above. Particulars: 100 mM KCl, 0.5 mM MgCl2; 50 mM MES-LiOH pH 7, 0.1% DMSO, 0.01% Tween-20, 25 °C, 50 nM BRB.

Assay [5] has as its system RNA-G (RNA, mismatch bulge abasic) GCAGCUCUUCCUG/CAGGAAAGCUGC
The assay is described as above. Conditions: 100 mM KCl, 0.5 mM MgCl2; 50 mM MES-LiOH pH 7, 0.1% DMSO, 0.01% Tween-20, 25 °C, 50 nM BRB.

Assay [6] relates to A1 (RNA, other) GGUCUCACAGUUCACCAGCCUGGAGAUGAAAGAUGAUUUCCUCCAUGGACUGCAGAUGCUGAAAUCUCUCCGCCCCCCGUUCCCCCCUCCUCCUCGGCGCGCGGCGGCGGAGAGCCGGCU
As to the kind of experiment: fluorescence of berberine with crude in vitro transcript. Particulars: 100 mM KCl, 0.5 mM MgCl2; 50 mM MES-LiOH pH 7, 1 μM BRB, 0.1% DMSO, 0.01% Tween-20, 25 °C; crude transcription mix.

Assay [7] deals with A1-A (RNA, other) GGUCUCACAGUUCACCAGCCUGGAGAUGAAAGAUGAUUUCCUCCAUGGACUGCAGA
The description is as above. Conditions: 100 mM KCl, 0.5 mM MgCl2; 50 mM MES-LiOH pH 7, 1 μM BRB, 0.1% DMSO, 0.01% Tween-20, 25 °C; crude transcription mix.

The subject of assay [8] is A1-C (RNA, other) GGUUCACCAGCCUGGAGAUGAAAGAUGAUUUCCUCCAUGGAC
The assay is described as above. Conditions: 100 mM KCl, 0.5 mM MgCl2; 50 mM MES-LiOH pH 7, 1 μM BRB, 0.1% DMSO, 0.01% Tween-20, 25 °C; crude transcription mix.

For assay [9], the system named is RNA-K (RNA, mismatch bulge abasic) GCAGCUCGCUCUG/CAGAGUAGCUGC
Nature of the assay: fluorescence titration of berberine (ex 365 nm, em 550 nm). Conditions: 100 mM KCl, 0.5 mM MgCl2; 50 mM MES-LiOH pH 7, 0.1% DMSO, 0.01% Tween-20, 25 °C, 50 nM BRB.

Assay [10] has as its system RNA-C (RNA, duplex) GCAGCUGUCCUG/CAGGAUAGCUGC
Described as above. Conditions: 100 mM KCl, 0.5 mM MgCl2; 50 mM MES-LiOH pH 7, 0.1% DMSO, 0.01% Tween-20, 25 °C; n.d., RNA up to 4 μM.

The test system of assay [11] is A1-B (RNA, other) GGCUGAAAUCUCUCCGCCCCCCGUUCCCCCCUCCUCCUCGGCGCGCGGCGGCGGAGAGCCGGC
Nature of the assay: fluorescence of berberine with crude in vitro transcript. Particulars: 100 mM KCl, 0.5 mM MgCl2; 50 mM MES-LiOH pH 7, 1 μM BRB, 0.1% DMSO, 0.01% Tween-20, 25 °C; crude transcription mix.

Assay [12] relates to RNA-I (RNA, mismatch bulge abasic) GCAGCACGUCCUG/CAGGAUUGCUGC
As to the kind of experiment: fluorescence titration of berberine (ex 365 nm, em 550 nm). Conditions: 100 mM KCl, 0.5 mM MgCl2; 50 mM MES-LiOH pH 7, 0.1% DMSO, 0.01% Tween-20, 25 °C, 50 nM BRB.

The subject of assay [13] is RNA-A (RNA, mismatch bulge abasic) GCAGCUCGUCCUG/CAGGAUAGCUGC
The assay is described as above. Conditions: 100 mM KCl, 0.5 mM MgCl2; 50 mM MES-LiOH pH 7, 0.1% DMSO, 0.01% Tween-20, 25 °C, 50 nM BRB.

The subject of assay [14] is A10 (RNA, other) GGUGAUAGCUCUUUCUCGAUUCCGUGGGUGGUGGUGCAUGGCCGUUCUCUUCUUGUGAUGUGACAGGAUGAUUCAUACCAGUCACUUUUAAAGCACUGUGUAAUGAGCAGAGUCCUUAGAAACAUCUUAGCAUC
As to the kind of experiment: fluorescence of berberine with crude in vitro transcript. Particulars: 100 mM KCl, 0.5 mM MgCl2; 50 mM MES-LiOH pH 7, 1 μM BRB, 0.1% DMSO, 0.01% Tween-20, 25 °C; crude transcription mix.

Assay [15] deals with RNA-E (RNA, mismatch bulge abasic) GCAGCUCAUCCUG/CAGGAUAGCUGC
As to the kind of experiment: fluorescence titration of berberine (ex 365 nm, em 550 nm). Conditions: 100 mM KCl, 0.5 mM MgCl2; 50 mM MES-LiOH pH 7, 0.1% DMSO, 0.01% Tween-20, 25 °C, 50 nM BRB.

The test system of assay [16] is RNA-L (RNA, mismatch bulge abasic) GCACGUCGUCCUG/CAGGAUACGUGC
The assay is described as above. Conditions: 100 mM KCl, 0.5 mM MgCl2; 50 mM MES-LiOH pH 7, 0.1% DMSO, 0.01% Tween-20, 25 °C, 50 nM BRB.

The subject of assay [17] is A1-D (RNA, hairpin) GGUGGAGAUGAAAGAUGAUUUCCUCCA
Nature of the assay: fluorescence of berberine with crude in vitro transcript. Particulars: 100 mM KCl, 0.5 mM MgCl2; 50 mM MES-LiOH pH 7, 1 μM BRB, 0.1% DMSO, 0.01% Tween-20, 25 °C; crude transcription mix.

For assay [18], the system named is C10 (RNA, other) GGUCUCUAUUUUACCCUCCUACAAGCCUCAGAGUACUUCGAGUCUCCCUUCACCAUUUCCGACGGCAUCUACGGCUCAACAUUUUUUGUAGCCACAG
The description is as above. Particulars: 100 mM KCl, 0.5 mM MgCl2; 50 mM MES-LiOH pH 7, 1 μM BRB, 0.1% DMSO, 0.01% Tween-20, 25 °C; crude transcription mix.

In assay [19] the test system is RNA-J (RNA, mismatch bulge abasic) GCAGCAUGUCCUG/CAGGAUUGCUGC
Nature of the assay: fluorescence titration of berberine (ex 365 nm, em 550 nm). Conditions: 100 mM KCl, 0.5 mM MgCl2; 50 mM MES-LiOH pH 7, 0.1% DMSO, 0.01% Tween-20, 25 °C; n.d., RNA up to 4 μM.

Assay [20] has as its system A1-E (RNA, hairpin) GGUCUCACAGUUCACCAGCCUAUGGACUGCAGA
As to the kind of experiment: fluorescence of berberine with crude in vitro transcript. Particulars: 100 mM KCl, 0.5 mM MgCl2; 50 mM MES-LiOH pH 7, 1 μM BRB, 0.1% DMSO, 0.01% Tween-20, 25 °C; crude transcription mix.

The subject of assay [21] is RNA-F (RNA, mismatch bulge abasic) GCAGCUCGUCCUG/CAGGACAGCUGC
Nature of the assay: fluorescence titration of berberine (ex 365 nm, em 550 nm). Conditions: 100 mM KCl, 0.5 mM MgCl2; 50 mM MES-LiOH pH 7, 0.1% DMSO, 0.01% Tween-20, 25 °C; n.d., RNA up to 4 μM.

The test system of assay [22] is RNA-B (RNA, mismatch bulge abasic) GCAGCUCAUCCUG/CAGGACAGCUGC
Described as above. Particulars: 100 mM KCl, 0.5 mM MgCl2; 50 mM MES-LiOH pH 7, 0.1% DMSO, 0.01% Tween-20, 25 °C, 50 nM BRB.

Assay [23] relates to C7-C (RNA, rRNA) GGGAAACGGGUUCCCUCCGAAGUUUCCC
Nature of the assay: fluorescence of berberine with crude in vitro transcript. Conditions: 100 mM KCl, 0.5 mM MgCl2; 50 mM MES-LiOH pH 7, 1 μM BRB, 0.1% DMSO, 0.01% Tween-20, 25 °C; crude transcription mix.

For assay [24], the system named is C7-B (RNA, rRNA) GGUCCUGGGAAACGGGUUCCCUCCGAAGUUUCCCUCAGGAU
The description is as above. Particulars: 100 mM KCl, 0.5 mM MgCl2; 50 mM MES-LiOH pH 7, 1 μM BRB, 0.1% DMSO, 0.01% Tween-20, 25 °C; crude transcription mix.

The test system of assay [25] is RNA-A (RNA, mismatch bulge abasic) GCAGCUCGUCCUG/CAGGAUAGCUGC
Nature of the assay: NMR structure (NOESY, TOCSY). Particulars: 100 mM NaCl, 10 mM Na2HPO4; pH 7, 1 mM EDTA, 10% 2H2O, 25 °C, 300 μM RNA.

SMILES strings stand for the structures.

With `COc1cc2c(cc1OC)-c1cc3ccc(OC)c(OC)c3c[n+]1CC2`, the “KA(ITC)” value in assay [1] is recorded as 2.32 ± 0.23 × 10^6 M^-1. The “ΔΔG°25 (melting)” value in assay [2] was -1.3 ± 0.10 kcal/mol.

With `COc1cc2c(cc1OC)-c1cc3ccc4c(c3c[n+]1CC2)OCO4`, the “KA(ITC)” value in assay [1] was 1.85 ± 0.25 × 10^6 M^-1. For the same compound, in [2], the “ΔΔG°25 (melting)” value is -1.0 ± 0.22 kcal/mol.

Turning to `COc1ccc2cc3[n+](cc2c1OC)CCc1cc2c(cc1-3)OCO2`, the “KA(ITC)” value in assay [1] is reported as 6.47 ± 0.37 × 10^6 M^-1. In addition, the binding result in [3] is “no”; in assay [6], “yes”; in [7], “yes”; in assay [8], “no”; in assay [10], “no”; in assay [11], “no”. Further, the binding entry in assay [14] is “no”; in assay [17], “no”; in assay [18] it was “no”; in assay [19] it was “no”; in assay [20] it was “yes”; in [21], “no”. Further, the binding entry is “no” in assay [23], “no” in assay [24] and “yes” in assay [25]. The Kobs in assay [4] is reported as 4.27 ± 0.88 × 10^6 M^-1; in [5], 0.29 ± 0.01 × 10^6 M^-1; in assay [9], 2.37 ± 0.43 × 10^6 M^-1; in assay [12] it was 0.43 ± 0.06 × 10^6 M^-1; in assay [13], 2.79 ± 0.64 × 10^6 M^-1; in [15], 0.36 ± 0.04 × 10^6 M^-1. Moreover, the Kobs is given as 1.88 ± 0.18 × 10^6 M^-1 in [16] and 0.98 ± 0.25 × 10^6 M^-1 in [22]. The “ΔΔG°25 (melting)” value in assay [2] is -2.0 ± 0.13 kcal/mol.

Consider `c1c2c(cc3c1OCO3)-c1cc3ccc4c(c3c[n+]1CC2)OCO4`, for which, in assay [1], the “KA(ITC)” value was 3.57 ± 0.31 × 10^6 M^-1. Moreover, the “ΔΔG°25 (melting)” value in assay [2] was -1.8 ± 0.15 kcal/mol.
